# Reference: PubChem BioAssay AID1508642 (National Center for Advancing Translational Sciences (NCATS), 2021)
# The whole screen tested about 43,000 compounds, of which about 200 (0.47%) were called active. Not shown: some 12% with an inconclusive outcome. Calls come from the whole dose curve; as a rule, active = well fitted cell-killing curve with a large enough effect; inconclusive = small, poorly fitted or top-dose-only effect, or effect the other way; inactive = flat fitted curve, though single readings scatter. The list shows a part of the results.
# Test: Cell viability qHTS assay in S16 Pmp22-F2sN cells; note: nearly all actives have a fitted effect of over 65% in size
# Details: S16 Pmp22-F2sN Schwann cells (luciferase reporters placed in the Pmp22 gene) viability, CellTiter-Glo, 24 h; series mostly up to 57.5 µM; activity change, negative = cytotoxicity: at the top concentration
# Outline: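 CellTiter-Glo counter-screen, qHTS, 1536-well. Cells: S16(c9) Pmp22-F2sN, 500-1,000/well in DMEM + 10% FBS. Cpd 23 nL pin transfer, 24 h, 37C/5% CO2. Read: luminescence, CCD imager.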
# % is set by controls: 0 for no effect and ±100 for the full control effect.
row,Structure (SMILES),"activity change, negative = cytotoxicity"
1,Cc1ccc2nc(N3CCC(C(=O)N4CCN(c5cccc(Cl)c5)CC4)CC3)[nH]c2c1,inactive: -16.5%
2,CCC(C)NC(=O)c1ccccc1NC(=O)CN1C(=O)c2cccc3cccc1c23 (stereo not drawn),inactive: 18.2%
3,COc1ccc(-c2cc(C(=O)OC(C)C(=O)c3ccccc3)c3cccc(Cl)c3n2)cc1 (stereo not drawn),inactive: 22.8%
4,c1ccc(Nc2c(-c3c[nH]c4ccccc34)nc3ccccn23)cc1,inactive: -7.63%
5,Cc1cccc(NC(=O)c2nnn(CC(=O)Nc3ccc(C(C)C)cc3)c2N)c1C,inactive: 0.26%
6,COc1cc(C(=O)NCC(c2cccs2)S(=O)(=O)c2ccc(F)cc2)cc(OC)c1OC (stereo not drawn),inactive: 9.08%
7,CCOC(=O)c1c(C)[nH]c(CCC(=O)Nc2ccc(C)c(F)c2)c1C,inactive: -0.435%
8,CC(C)NC(=O)CN1C(=O)COc2ccc(S(=O)(=O)N3CCCCCC3)cc21,inactive: 11.4%
9,COc1cc2cc(CNc3ccc(C)cc3)c(=O)n(CC(=O)Nc3ccc(F)cc3F)c2cc1OC,inactive: -1.48%
10,Cc1ccc(CSc2nnc(CCNC(=O)OC(C)(C)C)o2)cc1,inactive: 14.5%
11,COc1ccc(OC)c(NC(=O)CSc2nnc3ccc4ccccc4n23)c1,inactive: 1.43%
12,O=C(NCc1ccccc1Cl)c1ccc(CSCc2ccccc2Cl)o1,inactive: -4.67%
13,CCC(Sc1nc2cc(OC)c(OC)cc2c2nc(-c3ccccc3)nn12)C(=O)Nc1cccc(C)c1 (stereo not drawn),inactive: -0.356%
14,COc1ccc(NC(=O)C2=C(C)Nc3nc(SCc4ccccc4C)nn3C2c2cc(OC)c(O)c(OC)c2)cc1 (stereo not drawn),inactive: 1.79%
15,Cc1ccc(-n2ncc(C(=O)NCc3cccs3)c2C2CCN(C(=O)OC(C)(C)C)CC2)c(C)c1,inactive: -22.4%
16,CN(Cc1ccccc1)C(=O)Nc1ccc2c(c1)N(C)C(=O)c1ccccc1S2,inactive: -19.5%
17,CCc1ccc(NC(=O)CCn2nc(-c3ccccc3OC)c3c(C)cc(C)nc32)cc1,inactive: -5.64%
18,COc1ccc(-c2noc(CC(=O)Nc3ccc(F)cc3F)n2)cc1,inactive: -0.881%
19,Cc1ccc(-c2nnc(Nc3cccc(O)c3)c3ccccc23)cc1S(=O)(=O)N1CCOCC1,inactive: 10.8%
20,COc1ccccc1OC(C)C(=O)Nc1ccc(-c2nc3ccccc3s2)cc1 (stereo not drawn),inactive: -0.413%
21,CCC(C(=O)NCc1ccccc1)n1nc(C)c2sc3ccccc3c2c1=O (stereo not drawn),inactive: -4.97%
22,COc1ccc(NC(=O)CCn2c(=O)c3cccn3c3cccnc32)c(OC)c1,inactive: 4.86%
23,COC(=O)c1cc(S(=O)(=O)N2CCN(c3cccc(C)c3)C(C)C2)cn1C (stereo not drawn),inactive: -1.88%
24,NC(=O)c1ccccc1NC(=O)c1ccc(-c2ccc(Br)cc2)o1,inactive: -0.798%

row,Structure (SMILES),"activity change, negative = cytotoxicity"
1,O=C(Cn1ncc2c3ccccc3n(Cc3ccc(Cl)cc3)c2c1=O)NCc1ccccn1,inactive: 1.56%
2,O=C(CSc1nnc(-c2ccccc2)o1)c1cccc([N+](=O)[O-])c1,inactive: 1.11%
3,CCOC(=O)c1c(C)[nH]c(CCC(=O)NCc2ccc(CC)cc2)c1C,inactive: -6.08%
4,CC(=O)c1cccc(NC(=O)Cn2nc(C)n3cccc3c2=O)c1,inactive: -2.24%
5,CCN(CC)CCCNC(=O)c1ccc2c(=O)n(CCc3ccccc3)c(=O)[nH]c2c1,inactive: -5.92%
6,CCc1ccc(-n2cnc3cc(C(=O)NCc4ccc(C)cc4)ccc32)cc1,inactive: -4.39%
7,CC(=O)N1CCCc2cc(S(=O)(=O)N3CCC(C(=O)Nc4cccc(Cl)c4C)CC3)ccc21,inactive: -29%
8,CCN(CC)C(=O)c1c(-c2ccccc2)c(-c2ccccc2)nn(C)c1=O,inactive: 15.4%
9,CCc1ccc(C(=O)c2cn(CC(=O)Nc3cc(C)ccc3C)c3nc(C)ccc3c2=O)cc1,inactive: 7.82%
10,O=C(CSc1nnc(-c2cccs2)o1)Oc1ccccc1,inactive: 15.5%
11,COc1ccc(N2CCN(C(=O)CCn3nc(C)c(S(=O)(=O)N4CCCC4)c3C)CC2)cc1,inactive: 15.5%
12,COc1cc(NC(=O)Cn2c(=O)n(Cc3ccco3)c(=O)c3sc4ccccc4c32)cc(OC)c1,inactive: 10.2%
13,CCN(CC)C(=O)c1sc2c(c1C)c(=O)n(-c1ccc(Cl)c(Cl)c1)c(=O)n2Cc1ccccc1C#N,inactive: -28.7%
14,COCCCNc1oc(/C=C/c2cc(OC)c(OC)c(OC)c2)nc1C#N,inactive: -12.8%
15,Cc1cc(-c2ccc(C)c(S(=O)(=O)N3CCN(c4cccc(C(F)(F)F)c4)CC3)c2)on1,inactive: 0.434%
16,CN(C)c1ccc(-c2nc(-c3cc4cc(Cl)ccc4oc3=O)cs2)cc1,inactive: 4.28%
17,CCc1cccc(NC(=O)CCC(=O)N2CCSc3ccccc32)c1,inactive: -4.23%
18,Cc1ccc(Oc2c(C(F)(F)F)oc3c(CN4CCC(C)CC4)c(O)ccc3c2=O)cc1,inactive: 15.2%
19,Cc1ccc(N2CCN(C(=O)c3c(C)oc4ncn(CC(C)C)c(=O)c34)CC2)c(C)c1,inactive: 7.81%
20,Cc1cccc(NC(=O)CSc2ncc3c(n2)-c2ccccc2N(Cc2ccc(F)cc2)S3(=O)=O)c1C,inactive: 2.97%
21,Cc1ccc(C)c(N2CCN(C(=O)C3CCN(c4nc5ccc(C)cc5[nH]4)CC3)CC2)c1,inactive: -7.7%
22,COc1ccc(-n2c(=O)c3c(c4cc(OC)ccc4n3C)n(Cc3cccc(OC)c3)c2=O)cc1,inactive: -15.7%
23,COc1ccc(-c2cc3nc(C)c(CCC(=O)Nc4ccccc4C(C)=O)c(C)n3n2)c(OC)c1,inactive: 0.397%
24,O=C(CCC1N=C2c3ccccc3N=C(SCc3ccc(F)cc3)N2C1=O)NCc1ccc(F)cc1 (stereo not drawn),inactive: -28.7%

row,Structure (SMILES),"activity change, negative = cytotoxicity"
1,O=C(CCc1nc(CN2CCN(S(=O)(=O)c3ccc(Cl)cc3)CC2)no1)N1CCCCC1,inactive: -4.02%
2,CCc1cccc(C)c1NC(=O)Cn1ccn(-c2cccc(OC)c2)c(=O)c1=O,inactive: 2.08%
3,Cc1cccc(Cn2c(SCc3ccc(C(=O)NCCc4ccccc4)cc3)nc3ccncc32)c1,inactive: -16.5%
4,O=C(CSCc1cccc(F)c1)NCc1ccccc1,inactive: 4.07%
5,Fc1cccc(-n2ncc3c2ncn2nc(COc4ccc(Cl)cc4)nc32)c1,inactive: 6.93%
6,CCCC1=Nc2cc(C(=O)NCc3ccc(OC)cc3)ccc2Sc2ccc(C)cc21,inactive: -7.28%
7,CN1CCc2c(sc3c2C(=O)NC(c2ccc(OC(=O)c4ccc(C(C)(C)C)cc4)cc2)N3)C1 (stereo not drawn),inactive: 7.71%
8,Cc1nc2scc(C)n2c(=O)c1S(=O)(=O)Nc1ccc(N2CCOCC2)c(Cl)c1,inactive: -25.8%
9,CCOc1ccc(C(=O)NCCn2cc(SCC(=O)Nc3ccc4c(c3)OCCO4)c3ccccc32)cc1,inactive: -4.47%
10,CCOc1ccc(-c2nc(CSCC(=O)N3CCN(c4ccc(F)cc4)CC3)c(C)o2)cc1,inactive: -24.7%
11,CCCCn1c2ccc(F)cc2c2nnc(SCCN(CC)CC)nc21,inactive: -7.26%
12,Cc1ccc(CNC(=O)c2c3c(nc4ccccc24)C(=O)N(C2CCCCC2)C3)cc1,inactive: -5.21%
13,COc1ccc(NC(=O)c2cc3c(=O)[nH]c4ccccc4c3n2C)cc1Cl,inactive: 5.03%
14,CCCN(C(=O)CCc1nc(-c2ccccc2F)no1)c1ccc(CC)cc1,inactive: -1.42%
15,COc1ccc(CC(=O)NCc2nc3cccnc3n2Cc2ccc(F)cc2)cc1OC,inactive: -0.0434%
16,CCOc1cc2[nH]c(=O)n(Cc3ccc(C(=O)NCCN(CC)CC)cc3)c(=O)c2cc1OCC,inactive: -2.78%
17,COc1ccc(Cl)cc1NC(=O)CSc1nccn1Cc1ccco1,inactive: 2.64%
18,COc1cccc(NC(=O)CSc2nc3ccccc3nc2N2CCOCC2)c1,inactive: 0.467%
19,CCc1ccc(CN2C(=O)c3ccccc3C2C(=O)NCCc2ccc(OC)c(OC)c2)cc1 (stereo not drawn),inactive: -0.173%
20,CN(CC(=O)Nc1cccc(C(F)(F)F)c1)S(=O)(=O)c1ccc2[nH]c3c(c2c1)CCCC3,inactive: -15.5%
21,CCN(C(=O)c1oc2ccc(S(=O)(=O)N3CCCCCC3)cc2c1C)c1ccccc1,inactive: -2.98%
22,CCOC(=O)c1cccc(NC(=O)CN2C(=O)CC(C)(C)Sc3ccccc32)c1,inactive: 6.76%
23,Cc1ccc(Nc2c(-c3ccc(N4CCOCC4)cc3)nc3ncccn23)cc1,inactive: -7.1%
24,CCOC(=O)c1cc(S(=O)(=O)N2CCN(c3ccc(OC)cc3)CC2)[nH]n1,inactive: -1.49%

row,Structure (SMILES),"activity change, negative = cytotoxicity"
1,Cc1cccc(C)c1OCc1nc2c3cnn(-c4cccc(F)c4)c3ncn2n1,inactive: -5.71%
2,COc1ccc(CCNC(=O)CCCn2c(=O)c3ccccc3n(Cc3ccccc3C)c2=O)cc1OC,inactive: 5.55%
3,Cc1ccc(-n2ncc(C(=O)NCCN3CCc4ccccc4C3)c2C2CCN(C(=O)OC(C)(C)C)CC2)cc1,inactive: -18.6%
4,CCCCn1cc(S(=O)(=O)c2ccc(OC)cc2)c(=O)c2cc(F)c(N3CCCC3)cc21,inactive: 18.8%
5,COc1ccccc1CNC(=O)CN1C(=O)COc2ccc(S(=O)(=O)N3CCCCC3)cc21,inactive: -0.987%
6,O=S(=O)(NCc1cccc(Br)c1)c1ccc(-c2cc(C(F)(F)F)on2)s1,inactive: -0.467%
7,Cc1cc(C)cc(N2C(=O)N(CC(=O)c3ccc(Br)cc3)c3ccccc3S2(=O)=O)c1,inactive: -0.339%
8,COC(=O)c1sccc1S(=O)(=O)N(CC(=O)NCc1ccc(C)cc1)c1ccc(Cl)cc1,inactive: 4.94%
9,COc1ccc(C(=O)Nc2ccc3nc(SCC(=O)N4CCCc5ccccc54)sc3c2)cc1,inactive: -10.2%
10,Cc1cccc(NC(=O)N2CCC(CN3CCc4ccccc4C3)CC2)c1C,inactive: 0.356%
11,CCOc1ccc(NC(=O)Cn2cc(C(=O)c3ccc(C)c(C)c3)c(=O)c3cc4c(cc32)OCCO4)cc1,inactive: 3.74%
12,O=C(CSC1=Nc2ccccc2C2=NC(Cc3ccccc3)C(=O)N12)Nc1ccccc1F (stereo not drawn),inactive: -15.5%
13,CCOC(=O)NC1(C(F)(F)F)NC(=O)N(c2ccc(C)c(C)c2)C1=O (stereo not drawn),inactive: 0.724%
14,COc1ccc(S(=O)(=O)NCCc2csc(-c3ccc(F)cc3)n2)cc1,inactive: 2.23%
15,Cc1cc(C)cc(OCC(=O)Nc2ccc(S(=O)(=O)Nc3onc(C)c3C)cc2)c1,inactive: 6.76%
16,CCOc1ccc(-c2nc(SCC(=O)NCCOC)c(-c3ccc(OC)c(OC)c3)[nH]2)cc1,inactive: 1.22%
17,CCc1ccc(-n2nc(C)c3c(C(=O)Nc4cc(OC)cc(OC)c4)cc(C)nc32)cc1,inactive: -7.52%
18,CSc1nc2sc3c(c2c(=O)n1-c1ccc(F)c(Cl)c1)CCN(C(C)=O)C3,inactive: 12.7%
19,Cc1cc(C)cc(NC(=O)CSc2nc(-c3cccc(Cl)c3)nc3c2Cc2c(CO)cnc(C)c2O3)c1,inactive: -15.9%
20,COc1ccc(CNC(=O)Cn2c(SCC(=O)Nc3ccc(C)c(C)c3)nc3ccccc32)cc1,inactive: -29.1%
21,Cc1nn(CC(=O)NCc2ccccc2Cl)c(=O)c2nn(-c3ccccc3)c(C)c12,inactive: -5.47%
